Results from PubChem BioAssay AID1745853 (National Center for Advancing Translational Sciences (NCATS), 2022).
“And” between values parts separate entries of the source, which are not always exact repeats. Identical values can stand only once. Some of the results follow. The main result of the screen is listed elsewhere. These columns were measured beside it and carry no call.

Legend:
Experiment in all cases: Primary Screen for Target Class Profiling of Small Molecule Inhibitors of Methyltransferases
[1] = target: Glycine N-methyltransferase (Homo sapiens) (UniProt Q14749); details: purified enzyme, MTase-Glo SAH luminescence; measured here: GNMT inhibition; at 40 µM; stronger effect = lower value
How it was run: (§1)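 Each enzyme was reacted with SAM and its substrate, with compounds tested once at 40 uM; SAH formed was read by MTase-Glo luminescence.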

[2] = target: Guanidinoacetate N-methyltransferase (Homo sapiens) (UniProt Q14353); details: purified enzyme, MTase-Glo SAH luminescence; measured here: GAMT inhibition; at 40 µM; stronger effect = lower value
How it was run: as §1

[3] = target: Histamine N-methyltransferase (Homo sapiens) (UniProt P50135); details: purified enzyme, MTase-Glo SAH luminescence; measured here: HNMT inhibition; at 40 µM; stronger effect = lower value
How it was run: as §1

[4] = target: Nicotinamide N-methyltransferase (Homo sapiens) (UniProt P40261); details: purified enzyme, MTase-Glo SAH luminescence; measured here: NNMT inhibition; at 40 µM; stronger effect = lower value
How it was run: as §1

[5] = target: Phenylethanolamine N-methyltransferase (Homo sapiens) (UniProt P11086); details: purified enzyme, MTase-Glo SAH luminescence; measured here: PNMT inhibition; at 40 µM; stronger effect = lower value
How it was run: as §1
% is scaled to controls: 0 for no effect and ±100 for the full control effect.

SMILES	activity change, negative = inhibition [1]	activity change, negative = inhibition [2]	activity change, negative = inhibition [3]	activity change, negative = inhibition [4]	activity change, negative = inhibition [5]
COc1ccccc1CC(=O)NCCn1cccc1-c1nc(-c2ccccc2)no1	-7.36%	-14.1%	-5.69%	-19.8%	-26.7%
O=C(Nc1nc2ccccc2n1CCc1ccccc1)c1ccccc1	-4.44%	-2.88%	10.5%	-20%	1.4%
CCCS(=O)c1ccc2nc(NC(=O)OC)[nH]c2c1 (configuration not stated)	-30.1%	-36.4%	-27.9%	-41.8%	-25.7%
CN1C(=O)c2cc(C(=O)NCCC3=CCCCC3)nn2CC1(C)C(=O)NCc1ccc(F)cc1 (configuration not stated)	-5.91%	1.47%	-6.84%	-1.2%	-2.46%
CC1(C)CCC2(C(=O)OC3OC(CO)C(O)C(O)C3O)CCC3(C)C(=CCC4C5(C)CCC(O)C(C)(C(=O)O)C5CCC43C)C2C1O (configuration not stated)	1.41%	-3.21%	7.6%	-14.6%	-5.62%
Cc1ccc(NC(=O)N2CCn3cccc3C2Cc2ccccc2)cc1Cl (configuration not stated)	-9.38%	2.34%	-7.26%	-8.56%	-9.28%
Cc1cnc(-c2ccncc2)n1CC1CCN(C(=O)CCCc2ccccc2)C1 (configuration not stated)	-6.09%	-5.15%	-2.33%	-14.5%	-7.6%
Cc1nnc(C[C@@H]2C=C(c3ccc(Cl)cc3)c3ccccc3-n3c(C)nnc32)o1	-21.5%	-30.3%	-19.9%	-60.9%	-11.9%
COc1ccccc1CNC(=O)CNC(=O)C1(C)Cn2c(cc3ccccc32)C(=O)N1C (configuration not stated)	1.18%	0.087%	3.34%	8.43%	-1.67%
CN1C(=O)c2cc(C(=O)NCCCN3CCCCC3)nn2CC1(C)C(=O)NCc1ccc(F)cc1 (configuration not stated)	0.169%	-0.123%	-14.6%	0.723%	-4.31%
COCc1nnc2n1CCC(NC(=O)C1CC=CC1)CC2 (configuration not stated)	-0.787%	0.656%	3.25%	-0.297%	0.096%
CC1=C(/C=C/C(C)=C/C=C/C(C)=C\C(=O)O)C(C)(C)CCC1	-1.75%	7.22% and -8.57%	2.32%	-7.94% and -22.2%	1.88% and -0.659%
CC(=O)O[C@@H]1C(=O)O[C@@H]2[C@H]1OC(=O)[C@@H]2OC(C)=O	1.82%	4.14%	11.8%	-7.83%	4.88%
COc1ccc(Cn2cc(C(C(=O)O)N(C)Cc3cccnc3)cn2)cc1 (configuration not stated)	-4.64%	-7.27%	-1.49%	-10.8%	-8.15%
O=C(NCc1ccc(Cl)cc1)c1ccc2ccnn2c1	-11.7%	-6.41%	-3.72%	-12.9%	-9.07%
Cc1cc(Cl)c2oc(C(=O)N(Cc3c(C)nn(C)c3C)C3CC3)c(C)c2c1	-6.73%	-1.58%	-1.24%	-28.3%	4.31%

SMILES	activity change, negative = inhibition [1]	activity change, negative = inhibition [2]	activity change, negative = inhibition [3]	activity change, negative = inhibition [4]	activity change, negative = inhibition [5]
CSc1ccc2c(c1)N(CCC1CCCCN1C)c1ccccc1S2 (configuration not stated)	-6.74%	3.42%	-34.3%	-35.6%	1.43%
COC(=O)[C@H](Cc1ccc(OC)cc1)NC(=O)[C@H]1CN(S(=O)(=O)c2ccccc2)CCN1S(=O)(=O)c1ccccc1	-4.83%	-8.79%	-2.41%	-12.6%	-8.95%
COc1ccnc2[nH]cc(C(=O)C(=O)N3CCN(C(=O)c4ccccc4)CC3C)c12 (configuration not stated)	-12.3%		6.05%		
CCCn1c(=O)c2ccccc2n2c(=O)n(CC(=O)Nc3cc(F)ccc3F)nc12	0.396%	0%	2.8%	-4.6%	3.49%
Nc1ncccc1CN1C[C@H]2CN(C(=O)C3CCC3)C[C@@]2(C(=O)O)C1	-5.86%	-10.4%	-3.78%	-13.4%	-6.86%
CCOC(=O)c1c(NC(=O)N2CCn3c(C)ccc3C2CC)sc2c1CCCC2 (configuration not stated)	-8.36%	0%	-0.626%	-18.5%	-1.83%
COc1cc(NC(=O)Cn2nc3n(Cc4ccccc4)c(=O)c4ccccc4n3c2=O)cc(OC)c1	-1.04%	5.55%	1.19%	-2.33%	-1.38%
COc1ccc(-c2c(C(F)(F)F)oc3cc(OC(C)C(=O)OC4CCCCC4)ccc3c2=O)cc1OC (configuration not stated)	-7.5%	5.09%	0.99%	-3.1%	-3.09%
CCCN1C(=O)c2c(C(=O)NCc3cccc(Cl)c3)ncn2CC1(C)C(=O)NCc1ccc(OC)cc1 (configuration not stated)	0.82%	0%	2.66%	5.46%	5.04%
NC1C=CC=C(C(=O)O)C1 (configuration not stated)	5.78%	2.68%	11.1%	-3.07%	1.04%
CC(C)(Sc1ccc(CCN(CCCCC2CCCCC2)C(=O)NC2CCCCC2)cc1)C(=O)O	-7.66% and -4.32%	-0.892% and 9.09%	5.7% and -1.24%	-56.6% and -33.8%	1.98% and 4.95%
COc1ccc(CNc2nc3c(S(=O)(=O)c4ccc(C)cc4C)nnn3c3ccccc23)cc1	1.99%	-1.67%	-1.03%	0.248%	-3.25%
COc1cccc(NC(=O)Cn2c(=O)oc3cc(S(=O)(=O)N4CCCCC4C)ccc32)c1 (configuration not stated)	-6.31%	-5%	-8.99%	-17.6%	-60.6%
CN(C(=O)Cc1ccsc1)C1CCc2nn(C)c(=O)n2CC1 (configuration not stated)	-6.58%	-6.7%	-3.69%	-9.72%	6.07%
COc1cc(OC)c(/C=C/S(=O)(=O)Cc2ccc(OC)c(NCC(=O)O)c2)c(OC)c1	4.28%	3.72%	13.1%	-12.4%	5.07%
